Measurements from PubChem BioAssay AID588342 (National Center for Advancing Translational Sciences (NCATS), 2011).
Screen size: about 360,000 compounds; about 25,000 (6.9%) were called active. Inconclusive results, whose numbers are uncertain, are shown with a selection of clear calls. The call rests on the fitted dose curve; in most records, active means well fitted inhibition curve with a large enough effect; inconclusive means small, poorly fitted or top-dose-only effect; inactive means flat fitted curve, though single readings scatter. Where the call is inconclusive, the potency comes from a doubtful curve fit.

These compounds were tested against Luciferin 4-monooxygenase (Photinus pyralis) (UniProt P08659) (assay: qHTS profiling assay for firefly luciferase inhibitor/activator using purifed enzyme and Km concentrations of substrates (counterscreen for miR-21 project)). Conditions: purified FLuc, luminescence inhibition; series mostly up to 57.5 µM.
Chain of UniProt P08659 (P08659 whole entry, looked up): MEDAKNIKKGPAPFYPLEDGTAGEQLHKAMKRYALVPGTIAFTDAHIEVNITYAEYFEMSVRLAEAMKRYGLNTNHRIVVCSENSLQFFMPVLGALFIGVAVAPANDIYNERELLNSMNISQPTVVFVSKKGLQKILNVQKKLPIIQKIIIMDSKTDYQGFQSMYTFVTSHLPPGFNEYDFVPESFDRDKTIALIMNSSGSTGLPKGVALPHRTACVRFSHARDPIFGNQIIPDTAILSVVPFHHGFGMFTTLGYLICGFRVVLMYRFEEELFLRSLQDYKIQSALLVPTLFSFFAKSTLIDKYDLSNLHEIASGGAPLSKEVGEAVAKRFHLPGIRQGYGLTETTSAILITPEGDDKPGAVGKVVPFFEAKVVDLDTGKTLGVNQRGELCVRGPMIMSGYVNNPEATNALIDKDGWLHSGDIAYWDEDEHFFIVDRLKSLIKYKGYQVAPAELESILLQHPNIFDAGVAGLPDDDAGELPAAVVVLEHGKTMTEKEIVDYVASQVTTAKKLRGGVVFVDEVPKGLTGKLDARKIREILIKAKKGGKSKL
In short: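 Purified P. pyralis luciferase, 10 nM final, with Km-level 10 uM D-luciferin and 10 uM ATP in 50 mM Tris acetate pH 7.5, 10 mM Mg acetate, 0.01% Tween-20, 0.05% BSA; 6-point qHTS titration about 60 µM downward; luminescence read.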
Further: nearly all actives have a fitted effect of over 55% in size.
Potency means the concentration at half of the fitted maximal effect; tags describe the fitted curve by direction and shape.

Row | SMILES | Potency
1 | O=C(Nc1ccc2c(c1)OCO2)C(c1ccc(Cl)cc1)N1CCC2(CC1)OCCO2 (centres undefined) | inactive
2 | CN(C(=O)COc1ccc(S(=O)(=O)N2CCOCC2)cc1[N+](=O)[O-])C1CCS(=O)(=O)C1 (centres undefined) | inactive
3 | CS(=O)(=O)c1ccc(Cl)c(C(=O)OCC(=O)NC2CCCCCCC2)c1 | inactive
4 | O=c1[nH]c2ccccc2n2c(-c3ccccc3)nnc12 | inconclusive: 12 µM [inhibitor, partial curve]
5 | CCC1CCCCN1C(=O)CSc1n[nH]c(-c2ccccc2)n1 (centres undefined) | inconclusive: 23.9 µM [inhibitor, single point]
6 | CCn1c(COc2ccccc2C(N)=O)nc2ccccc21 | inconclusive: 37.9 µM [inhibitor, partial curve, poor fit]
7 | CCOc1ccc(S(=O)(=O)N2CCCC(C(=O)NCc3ccccn3)C2)cc1 (centres undefined) | inactive
8 | O=C(Oc1ccc(C(=S)N2CCOCC2)cc1Cl)c1ccccc1F | inconclusive: 23.9 µM [inhibitor, partial curve, poor fit]
9 | COc1ccc(-c2cc(=O)c(C(=O)c3ccc(C)cc3)n[nH]2)cc1 | inconclusive: 16.9 µM [inhibitor, partial curve, poor fit]
10 | Cc1c(C2=CCN(S(=O)(=O)c3ccc(Cl)cc3)CC2)c2ccccc2n1CC(=O)N1CCCC1 | inactive
11 | Cc1ccc(NC(=O)c2cc(C)on2)cc1 | active: 6.75 µM
12 | COc1ccccc1CNC(=O)Cn1cc(Br)ccc1=O | inactive
13 | CC(=O)Nc1ccc(C)cc1 | inactive
14 | COc1ccc(Cl)cc1NC(=O)Nc1ccc(C(=O)N2CCOCC2)cc1 | inconclusive: 26.9 µM [inhibitor, partial curve, poor fit]
15 | CCOc1ccccc1Oc1nc(-c2ccccc2O)nc2ccccc12 | inactive
16 | CC(C)CC(=O)NS(=O)(=O)c1ccc(NS(C)(=O)=O)cc1 | inconclusive: 16.9 µM [inhibitor, partial curve, poor fit]
17 | CC(=O)c1ccc(NC(=O)C(Cc2ccccc2)NS(=O)(=O)c2ccc3c(c2)CCC(=O)N3)cc1 (centres undefined) | inactive
18 | Cc1cc(NC(=O)Cc2ccccc2[N+](=O)[O-])no1 | inactive
19 | Cn1cc2cccc([N+](=O)[O-])c2n1 | inactive
20 | Cc1cc2n(n1)SC(Nc1ccc(F)cc1)N2 (centres undefined) | inconclusive: 21.3 µM [inhibitor, single point]
21 | Cc1cccc(N=N/C(=C\O)C(=O)c2cccs2)c1 | inconclusive: 21.3 µM [inhibitor, partial curve]
22 | CCOc1ccc(CNC(=O)CCS(=O)(=O)c2cc3c4c(c2)CCN4C(=O)CC3)cc1 | inactive
23 | O=C(NN=C1CCCCCC1)c1cn(-c2ccccc2)nc1-c1ccccc1 | active: 15.1 µM
24 | CCOC(=O)c1cnc(SCC(=O)Nc2ccc(N3CCOCC3)c(Cl)c2)nc1N | inconclusive: 23.9 µM [inhibitor, single point]
25 | COc1ccc(NC(=S)N=Nc2c(O)[nH]c3ccccc23)cc1 | inconclusive: 37.9 µM [inhibitor, partial curve, poor fit]

Row | SMILES | Potency
26 | CCOc1cc(/C=C/C(=O)c2ccc3c(c2)OCCO3)ccc1OCC(=O)N(C)C | inconclusive: 16.9 µM [inhibitor, partial curve]
27 | Cc1cccc(OCC(=O)OCc2cc(=O)n3nc(C4CC4)sc3n2)c1 | inactive
28 | Clc1ccc(Cl)c2sc(N3CCCC3)nc12 | inconclusive: 37.9 µM [inhibitor, partial curve, poor fit]
29 | Cc1cccc(C)c1OCC(=O)Nc1cccc(NC(=O)c2ccco2)c1 | inconclusive: 23.9 µM [inhibitor, single point]
30 | O=C(Nc1ccccn1)c1ccc([N+](=O)[O-])cc1Cl | inconclusive: 37.9 µM [inhibitor, partial curve, poor fit]
31 | NS(=O)(=O)c1ccc(CCNS(=O)(=O)c2ccc(Cl)nc2)cc1 | inactive
32 | O=C(NCc1ccccc1)c1cccc(Nc2nc3ccccc3n3nnnc23)c1 | inactive
33 | S=C(NCC1CCCO1)N1CCc2ccccc2C1 (centres undefined) | inactive
34 | O=C(NC(=S)Nc1ccc2oc(=O)ccc2c1)c1ccco1 | inconclusive: 26.9 µM [inhibitor, partial curve]
35 | Cc1cc(N2CC(C)OC(C)C2)n2cc(-c3ccccc3)nc2n1 (centres undefined) | inconclusive: 19 µM [inhibitor, partial curve]
36 | OCCn1c(-c2ccc(F)cc2)csc1=Nc1ccccc1 | inconclusive: 26.9 µM [inhibitor, single point]
37 | O=C(CCNC(=O)c1ccc(Cl)cc1)NC1CCCCCC1 | inconclusive: 16.9 µM [inhibitor, partial curve, poor fit]
38 | Oc1ccc(/C=N/N2CCOCC2)c(O)c1O | inconclusive: 23.9 µM [inhibitor, single point]
39 | O=C(CCNS(=O)(=O)c1ccccc1)NCC1CCCCC1 | inactive
40 | Cc1sc2nc(SCC(=O)Nc3cccc(C(=O)O)c3)[nH]c(=O)c2c1C | inconclusive: 37.9 µM [inhibitor, single point]
41 | CN1CCN(C(=O)c2cc(-c3cccc(Cl)c3)on2)CC1 | inconclusive: 33.8 µM [inhibitor, single point]
42 | O=C1c2ccccc2S(=O)(=O)N1CC(O)COc1ccc(Cl)cc1 (centres undefined) | inconclusive: 23.9 µM [inhibitor, single point]
43 | COc1ccc(-c2cc(C(=O)Nc3ccc(C#N)cc3)no2)cc1 | inactive
44 | COc1ccccc1NS(=O)(=O)c1cccc(NC(=O)Nc2cccc(Cl)c2)c1 | inconclusive: 37.9 µM [inhibitor, partial curve, poor fit]
45 | CC1CN(C(=O)CSc2nc(-c3ccccc3)cs2)CC(C)O1 (centres undefined) | inconclusive: 37.9 µM [inhibitor, partial curve, poor fit]
46 | CCCOc1ccc(C(=O)Nc2cc3nn(-c4ccc(CC)cc4)nc3cc2C)cc1 | inconclusive: 0.601 µM [inhibitor, full curve]
47 | O=C(N/N=C/c1ccc(Br)cc1)c1cc[n+]([O-])cc1 | inconclusive: 30.1 µM [inhibitor, partial curve, poor fit]
48 | O=C(NCc1cccs1)Nc1cccs1 | inconclusive: 30.1 µM [inhibitor, partial curve]
49 | COc1ccccc1OCCCn1c(-c2ccc(Cl)cc2)nc2ccccc2c1=O | inactive
50 | Cc1ccc2oc(C(=O)N3CCC(O)(c4ccccc4)CC3)c(C)c2c1 | inconclusive: 33.8 µM [inhibitor, partial curve, poor fit]

Row | SMILES | Potency
51 | CCC(C)Cn1c(COc2ccc(OC)cc2)nc2ccccc21 (centres undefined) | inconclusive: 37.9 µM [inhibitor, single point]
52 | Cc1[nH][nH]c(=O)c1C(c1ccc(Br)cc1)c1c(C)[nH][nH]c1=O | inactive
53 | O=C(N/N=C/c1ccc(Cl)cc1)c1sccc1OCc1ccc(F)cc1 | inconclusive: 2.39 µM [inhibitor, full curve]
54 | COc1ccc(/C=N/NC(=S)Nc2cccc(C(=O)O)c2)cc1 | active: 1.69 µM
55 | CSCCC(NC(=O)c1ccccc1Cl)C(=O)NNC(=O)c1ccncc1 (centres undefined) | inconclusive: 37.9 µM [inhibitor, partial curve, poor fit]
56 | COc1ccc(NC(=O)N2CCC(C(=O)c3ccc4c(c3)OCCO4)CC2)cc1 | inconclusive: 37.9 µM [inhibitor, partial curve, poor fit]
57 | CCn1cnc2c(=O)oc3ccc(S(=O)(=O)N4CCN(c5cc(C)ccc5C)CC4)cc3c21 | inactive
58 | COc1ccccc1C(=O)NCCC(=O)N1CCN(c2cccc(C(F)(F)F)c2)CC1 | inactive
59 | COc1ccccc1C(=O)Nc1ccccc1SC(=O)c1ccccc1OC | active: 5.36 µM
60 | O=C(NCc1cccnc1)c1sc2cc(Cl)ccc2c1Cl | inconclusive: 21.3 µM [inhibitor, partial curve, poor fit]
61 | Cc1c(NC(=O)Nc2ccccc2)cccc1[N+](=O)[O-] | inconclusive: 21.3 µM [inhibitor, partial curve]
62 | Cc1ccc(C2C=C(c3ccc(Cl)cc3)Nc3nc(NC(=O)CCC(=O)O)nn32)cc1 (centres undefined) | inactive
63 | CC(=O)Nc1ccc(NC(=O)CNC(=O)c2cccc(C)c2)cc1 | inactive
64 | O=c1c2ccccc2ncn1-c1ccc2c(c1)OCCO2 | inconclusive: 26.9 µM [inhibitor, single point]
65 | CSCC[C@H](NC(=O)Cc1c(C)c2c(cc(C)c3c(C)coc32)oc1=O)C(=O)O | active: 19 µM
66 | O=C(CN1C(=O)NC2(CCCCCC2)C1=O)c1ccc(Cl)cc1 | inconclusive: 26.9 µM [inhibitor, single point]
67 | COc1cccc(CNC(=O)CCn2ccc3cc(S(=O)(=O)N4CCCC4)ccc32)c1 | inactive
68 | C(/CCc1ccccc1)=N\Nc1nc2ccccc2[nH]1 | active: 2.13 µM
69 | CC1(C)CC(=O)C(C(C2=C(O)CC(C)(C)CC2=O)c2cccc(O)c2)C(=O)C1 (centres undefined) | inactive
70 | Cc1c(C(=O)NCc2ccco2)oc2ccc(Br)cc12 | inconclusive: 30.1 µM [inhibitor, single point]
71 | Cc1ccc2nc(SCC(=O)Nc3ccc4[nH]c(=O)[nH]c4c3)[nH]c2c1 | inconclusive: 8.49 µM [inhibitor, partial curve]
72 | O=C(NC(=S)NCCC1=CCCCC1)c1ccco1 | inconclusive: 26.9 µM [inhibitor, single point]
73 | CCCCOc1ccc(NC(=O)CSc2ccc(C(=O)O)cn2)cc1 | inconclusive: 15.1 µM [inhibitor, partial curve]
74 | CC(C)(C)c1ccc(NC(=O)COC(=O)CCN2C(=O)c3cccc([N+](=O)[O-])c3C2=O)cc1 | inconclusive: 15.1 µM [inhibitor, partial curve]
